According to US6696546B1, “Peptide that kills growing but not stationary cells” (The Trustees of Columbia University in the City of New York, priority 2000, dated 2004):

Target: PAP-cyclin B1 interaction (Homo sapiens, UniProt P14635)
Assay: GST-cyclin B1 pull-down assay of PAP binding
Conditions: lower concentrations of peptide (9 and 18 μM); relative to 100% of PAP I used

Sequence of PAP-cyclin B1 interaction (P14635 whole entry): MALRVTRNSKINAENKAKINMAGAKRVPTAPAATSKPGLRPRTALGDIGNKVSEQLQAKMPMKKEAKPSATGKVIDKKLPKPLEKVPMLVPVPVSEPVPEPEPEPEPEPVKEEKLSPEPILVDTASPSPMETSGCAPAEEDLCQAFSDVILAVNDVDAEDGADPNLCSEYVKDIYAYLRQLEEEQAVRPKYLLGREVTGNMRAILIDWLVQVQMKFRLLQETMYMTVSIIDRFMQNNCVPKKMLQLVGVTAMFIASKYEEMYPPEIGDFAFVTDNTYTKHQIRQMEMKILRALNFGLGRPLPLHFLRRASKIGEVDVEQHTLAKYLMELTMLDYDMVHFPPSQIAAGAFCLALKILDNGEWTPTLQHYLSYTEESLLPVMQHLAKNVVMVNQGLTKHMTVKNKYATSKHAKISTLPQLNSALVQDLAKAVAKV

“SKIRILVG (poly(A) polymerase cyclin recognition motif) [SEQ ID NO:1]” was tested, and the “PAP I bound to cyclin B1” value was 50-100%.
